Measured values reported in US9290570B2, “Pan-ELR+ CXC Chemokine Antibodies” (Eli Lilly and Company, priority 2013, dated 2016).

T1: I10A human CXCL8 point mutant (Homo sapiens, UniProt P10145, I37A)
T1 construct: His-SUMO (N, cleaved yes); made in house; host or cells: E. coli
T1 sequence (P10145 28-99 I37A): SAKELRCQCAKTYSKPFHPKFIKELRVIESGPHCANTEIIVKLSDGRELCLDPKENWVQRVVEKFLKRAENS

T2: A35P human CXCL8 point mutant (Homo sapiens, UniProt P10145, A62P)
T2 construct: His-SUMO (N, cleaved yes); made in house; host or cells: E. coli
T2 sequence (P10145 28-99 A62P): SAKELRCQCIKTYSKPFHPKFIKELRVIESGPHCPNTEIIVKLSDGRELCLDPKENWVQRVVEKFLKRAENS

T3: I40A human CXCL8 point mutant (Homo sapiens, UniProt P10145, I67A)
T3 construct: His-SUMO (N, cleaved yes); made in house; host or cells: E. coli
T3 sequence (P10145 28-99 I67A): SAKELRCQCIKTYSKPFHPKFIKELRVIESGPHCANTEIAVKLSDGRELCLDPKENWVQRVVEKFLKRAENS

T4: L49A human CXCL8 point mutant (Homo sapiens, UniProt P10145, L76A)
T4 construct: His-SUMO (N, cleaved yes); made in house; host or cells: E. coli
T4 sequence (P10145 28-99 L76A): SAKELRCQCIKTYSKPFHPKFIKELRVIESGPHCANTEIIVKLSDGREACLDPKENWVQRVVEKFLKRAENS

T5: wild type human CXCL8 (Homo sapiens, UniProt P10145)
T5 construct: made in house; host or cells: E. coli (stated in b60 for the truncated 1-66 wild type)
T5 sequence (P10145 28-99 limits assumed): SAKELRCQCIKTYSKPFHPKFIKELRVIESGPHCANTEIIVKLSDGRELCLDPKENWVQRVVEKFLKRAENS


How the values were obtained:
DSS-induced colitis = experiment: In vivo acute DSS colitis model in mice; conditions: Day 8, 25 mg/kg subcutaneous Day 0, 2, 4, 8
Description: Dextran sulfate sodium (DSS) is the most commonly used model of Ulcerative Colitis (UC). In this model, DSS is a chemical irritant that is added to drinking water to induce acute disease that resembles UC. The acute phase of DSS colitis is characterized by the recruitment of neutrophils to the mucosa and submucosa, and increased expression of ELR^+ CXC chemokines. However, chronic exposure to DSS causes severe gut damage and significant weight loss, which is not suitable in a colitis model. To accommodate the acute nature of this model, Antibody 1 was used in a prophylactic manner to test its ability to inhibit the recruitment of neutrophils and the development of colitis.
C57BL/6 mice, 8-10 wks old, weighing 18-22 g, are obtained. Blood is collected by cardiac puncture and analyzed to establish a baseline. To induce colitis, mice receive 2.5% DSS (MW=36,000-50,000) in the drinking water for 5 days (Days 1-5) followed by 6 days of no DSS water (reflecting acute inflammation). Control healthy mice receive water only (“no DSS” group). Mice receiving DSS are dosed by subcutaneous injection on Day 0, 2, 4, and 8 with human IgG4 control antibody (25 mg/kg) or Antibody 1 (25 mg/kg). Body weight is recorded daily. The number of mice used for each treatment is 9 (except 5 healthy mice are used in the healthy “no DSS” group.) The study is performed in quadruplicate.

[1] = target: T1, I10A human CXCL8 point mutant; experiment: Biacore binding kinetics, I10A human CXCL8 point mutant; conditions: 25° C.
Source text: (§1) Several key contacts between the Antibody 1 Fab and wild type human CXCL8 are observed in the crystal structure and are further tested through binding kinetic studies and U937-huCXCR2 fluorescent imaging plate reader (FLIPR) neutralization of human CXCL8 point mutants. To study these key contacts, several point mutants (R6A, I10A, A35P, I40A, and L49A) are made based on the human CXCL8 sequence (SEQ ID NO: 27). Wild type, R6A, I10A, A35P, I40A, and L49A human CXCL8 point mutants are expressed, refolded, and purified according to standard techniques. Formation of disulfide bonds is confirmed by tryptic digest and mass fingerprint analysis, and activity is confirmed by neutrophil chemotaxis assay.
(§2) Binding kinetics are tested on a Biacore 2000 instrument with Biacore 2000 Evaluation Software Version 4.1 as described above.
(§3) The on-rate (kon) and off-rate (koff) for each ligand are evaluated using a “1:1 (mass transfer) Binding” binding model. The affinity (KD) is calculated from the binding kinetics according to the relationship: KD=koff/kon.

[2] = target: T2, A35P human CXCL8 point mutant; experiment: Biacore binding kinetics, A35P human CXCL8 point mutant; conditions: 25° C.
Source text: as §1, §2, §3

[3] = target: T3, I40A human CXCL8 point mutant; experiment: Biacore binding kinetics, I40A human CXCL8 point mutant; conditions: 25° C.
Source text: as §1, §2, §3

[4] = target: T4, L49A human CXCL8 point mutant; experiment: Biacore binding kinetics, L49A human CXCL8 point mutant; conditions: 25° C.
Source text: as §1, §2, §3

wild type human CXCL8 = target: T5, wild type human CXCL8; experiment: Biacore binding kinetics, wild type human CXCL8 (mutational analysis); conditions: CXCL8 WT; 25° C.
Source text: as §1, §2, §3

[5] = Physical stability evaluation, % HMW aggregate by analytical SEC; assay type: physicochemical; conditions: 50 mg/mL; after 1 and 4 weeks at 25° C.
Source text: Protein aggregation and self-association is an undesirable property in antibodies as it could potentially exacerbate unwanted effects, such as triggering an immune response. Thus, maintaining the antibody in a monomeric state is highly desirable. Percent high molecular weight (% HMW) aggregate is an indicator of protein aggregation and self-association. A higher % HMW aggregate indicates increased protein aggregation/self-association and increased physical instability. Physical stability of Antibody 1 and Antibody 2 are determined as follows.
Antibody is dialyzed overnight at 4° C. into 10 mM Citrate, pH 6+/−150 mM NaCl. The next morning, the samples are concentrated to 50 mg/mL, filtered through 0.2 micron filters, and then Tween-80 is added to a final concentration of 0.02%. Each sample is incubated at 25° C. for the specified times. Soluble aggregate formation is followed by analytical SEC using a TSK3000SWXL, 5 micron column with dimensions 30 cm×0.78 cm.
The 50 mg/mL formulations are incubated for 1 and 4 weeks at 25° C. to assess longer-term stability under stress conditions. The delta % HMW aggregate is determined by subtracting the % HMW aggregate at time zero (designated as ‘Initial’ in Table 3) from the % HMW at the 1 week or 4 week time point.

koff [1]	kon [1]	koff [2]	kon [2]	koff [3]	kon [3]	koff [4]	kon [4]	koff (wild type human CXCL8)	kon (wild type human CXCL8)	Molecule	% of Initial Body Weight (DSS-induced colitis)	delta % HMW [5]
3.44 ± 0.01 × 10^−4 s^−1	2.77 ± 0.39 × 10^5 M^−1 s^−1	4.97 ± 1.72 × 10^−3 s^−1	1.06 ± 0.07 × 10^6 M^−1 s^−1	4.24 ± 1.16 × 10^−4 s^−1	1.61 ± 0.21 × 10^4 M^−1 s^−1	5.44 ± 0.42 × 10^−4 s^−1	1.43 ± 0.24 × 10^5 M^−1 s^−1	4.41 ± 4.55 × 10^−4 s^−1	3.03 ± 3.78 × 10^6 M^−1 s^−1	Antibody 1: Antibody with heavy chain SEQ ID NO: 1 and light chain SEQ ID NO: 3, expressed in NSO cells (antibody) heavy: QVQLVQSGAEVKKPGASVKVSCKASGYEFTSYWIHWVRQAPGQGLEWMGNISPNSGSANYNEKFKSRVTMTRDTSTSTVYMELSSLRSEDTAVYYCAREGPYSYYPSREYYGSDLWGQGTLVTVSSASTKGPSVFPLAPCSRSTSESTAALGCLVKDYFPEPVTVSWNSGALTSGVHTFPAVLQSSGLYSLSSVVTVPSSSLGTKTYTCNVDHKPSNTKVDKRV[human IgG4 Fc with S228P (EU numbers) not spelt out] light: EIVLTQSPATLSLSPGERATLSCRASQSISNNLHWYQQKPGQAPRLLIYYTSRSVSGIPARFSGSGSGTDFTLTISSLEPEDFAVYYCGQNNEWPEVFGGGTKVEIKRTVAAPSVFIFPPSDEQLKSGTASVVCLLNNFYPREAKVQWKVDNALQSGNSQESVTEQDSKDSTYSLSSTLTLSKADYEKHKVYACEVTHQGLSSPVTKSFNRGEC	94.0%	below 1%
										Antibody 2: Antibody with heavy chain SEQ ID NO: 13 and light chain SEQ ID NO: 15, expressed in NSO cells (antibody) heavy: QVQLVQSGAEVKKPGASVKVSCKASGYEFTSYWIHWVRQAPGQGLEWMGNISPNSGSANYNEKFKSRVTMTRDTSTSTVYMELSSLRSEDTAVYYCAREGPYSYYPSRQYYGSDLWGQGTLVTVSSASTKGPSVFPLAPCSRSTSESTAALGCLVKDYFPEPVTVSWNSGALTSGVHTFPAVLQSSGLYSLSSVVTVPSSSLGTKTYTCNVDHKPSNTKVDKRV[human IgG4 Fc with S228P (EU numbers) not spelt out] light: EIVLTQSPATLSLSPGERATLSCRASQSISNNLHWYQQKPGQAPRLLIYYTSRSVSGIPARFSGSGSGTDFTLTISSLEPEDFAVYYCGQNNEWPEVFGGGTKVEIKRTVAAPSVFIFPPSDEQLKSGTASVVCLLNNFYPREAKVQWKVDNALQSGNSQESVTEQDSKDSTYSLSSTLTLSKADYEKHKVYACEVTHQGLSSPVTKSFNRGEC		below 1%
